Structures are written as SMILES. In all, about 45,000 compounds went through this assay and about 65 (0.1%) were called active. Calls come from the whole dose curve; as a rule, active = well fitted activation curve with a large enough effect; inconclusive = small, poorly fitted or top-dose-only effect; inactive = no such curve, though single readings can be large or run the other way. Some of the results follow.

In the test the target is Galactocerebrosidase (Homo sapiens) (UniProt P54803). The test is described as follows: A Novel Cell-Based Assay to Identify Small Molecules for B -Galactocerebrosidase. Note: 0% is about no effect; nearly all actives have a fitted effect of over 65% in size. Conditions: 145M-Twi-hGALC-G270D cells (Twitcher mouse brain line with human GALC G270D), HMU-beta-Gal fluorescence, 48 h; series mostly up to 57.5 µM; activation: at the top concentration. A digest of the protocol: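 Fluorescence readout: HMU-β-gal cleavage by mutant GALC (0.1 mM final, citrate/phosphate pH 5.2 with 1 mg/mL taurocholate), stopped with carbonate/bicarbonate plus Triton X-100. Cells: murine Twitcher 145M-Twi expressing human G270D GALC; qHTS for activators.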
UniProt P54803, sequence (P54803 whole entry, looked up): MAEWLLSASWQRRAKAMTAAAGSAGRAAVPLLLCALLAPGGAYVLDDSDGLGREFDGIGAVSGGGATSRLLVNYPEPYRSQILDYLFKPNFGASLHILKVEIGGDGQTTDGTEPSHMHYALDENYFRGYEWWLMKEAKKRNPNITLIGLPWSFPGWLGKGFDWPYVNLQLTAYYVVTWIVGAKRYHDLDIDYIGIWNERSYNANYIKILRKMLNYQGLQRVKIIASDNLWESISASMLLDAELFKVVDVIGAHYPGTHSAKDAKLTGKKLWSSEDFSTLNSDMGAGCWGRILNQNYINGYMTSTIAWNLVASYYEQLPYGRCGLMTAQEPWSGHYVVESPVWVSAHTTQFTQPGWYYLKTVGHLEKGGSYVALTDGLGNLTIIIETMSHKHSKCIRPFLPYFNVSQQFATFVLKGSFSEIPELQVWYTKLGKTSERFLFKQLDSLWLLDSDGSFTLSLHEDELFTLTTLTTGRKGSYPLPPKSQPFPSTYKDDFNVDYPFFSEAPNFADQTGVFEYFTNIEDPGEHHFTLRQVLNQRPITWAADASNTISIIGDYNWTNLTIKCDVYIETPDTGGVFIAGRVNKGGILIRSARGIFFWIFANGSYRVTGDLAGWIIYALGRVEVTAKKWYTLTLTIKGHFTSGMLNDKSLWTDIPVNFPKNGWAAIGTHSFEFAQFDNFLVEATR
For `COc1ccccc1C1c2c(-c3ccc(Cl)cc3)n[nH]c2C(=O)N1c1ccc(C)cc1` (stereo not drawn), the “activation” value was inactive: -6.4%.
The figure for `Cc1ccccc1C(=O)Nc1cccc(OCc2cc(=O)n3c(C)csc3n2)c1` is inactive: -9.76%; for `CCN1CCN(Cc2c(O)ccc3c(C)c(-c4ccc(OC)cc4)c(=O)oc23)CC1` it is inactive: -6.29%; for `Cc1ccc(S(=O)(=O)N2CCC(C(=O)NCc3ccccc3Cl)CC2)cc1` it is inactive: -9.06%.
As to `CCN(CC)CCOC(=O)c1ccc(NC(=O)c2cc3c(=O)n(CC)c4ccccc4c3s2)cc1`, the “activation” value was inactive: -0.691%.
With `COc1ccccc1N1CCN(c2ncnc3c2nnn3C)CC1`, the “activation” value was inactive: -3.02%.
As for `Cc1ccc(C)c(NC(=O)CN2CCSc3ccc(S(=O)(=O)N4CCCC4)cc32)c1`, the figure is inactive: -22.5%.
As for `CCOCCn1ccc2c(OCC(=O)Nc3ccc(C(N)=O)cc3)cccc2c1=O`, the figure is inactive: -19.6%.
As for `CC(C)c1ccc(CN(C(=O)c2cc3ccccc3oc2=O)C2CCS(=O)(=O)C2)cc1` (stereo not drawn), the figure is inactive: -30.9%.
With `COc1ccc(NC(=O)C2CCN(S(=O)(=O)c3cccc(-c4noc(C)n4)c3)CC2)cc1OC`, the “activation” value is inactive: -21.3%.
Regarding `CCOC(=O)c1oc2ccc(S(=O)(=O)n3nc(-c4ccc(C)cc4)cc3N)cc2c1C`, the “activation” value is inactive: -40.3%.
As for `Cc1cc(S(=O)(=O)N2CCN(Cc3noc(CCC(=O)N4CCCCC4)n3)CC2)ccc1F`, the “activation” value is inactive: -33.8%.
For the compound `CN(C)c1ccc(CNC(=O)C2CCN(c3nc4ccccc4[nH]3)CC2)cc1`, the “activation” value was inactive: -0.404%.
With `CCCc1nn2c(=O)cc(COC(=O)c3ccc(NC(=O)COc4ccc(F)cc4)cc3)nc2s1`, the “activation” value was inactive: -9.08%.
Take `COC(=O)c1cc2occc2n1Cc1nc(-c2ccccc2)oc1C`: the “activation” value is inactive: -10.1%.
As for `COc1cccc2sc(N(Cc3cccnc3)C(=O)c3ccc4c(c3)OCCO4)nc12`, the figure is inactive: -21.3%; as for `COc1ccc(C2NC(=O)N(C)C3=C2C(=O)N(c2ccc(Br)cc2)C3)cc1` (stereo not drawn), inactive: -14%.
The figure for `CCOC(=O)CC(NC(=O)CCc1c(C)nc2c(-c3ccccc3)c(C)nn2c1C)c1ccc(OC(C)C)cc1` (stereo not drawn) is inactive: -27.8%; for `COc1cccc(CNC(=O)c2cnc3sc(N4CCCC4)nn3c2=O)c1OC` it is inactive: -4.99%.
Regarding `CCOC(=O)COc1ccc(C2C(C(=O)OC)=C(C)NC3=C2C(=O)c2ccccc23)cc1Cl` (stereo not drawn), the “activation” value was inactive: 2.88%.
Consider `COc1ccc(Cn2c(CCC(=O)NCc3ccc(Cl)cc3)nc3cccnc32)cc1`, for which the “activation” value is inactive: -12.5%.
For the compound `CSc1ccc(CCNC(=O)NCc2noc3ccccc23)cc1`, the “activation” value was inactive: -14.8%.
The figure for `Cc1cccc(NC(=O)Cn2cc(C(=O)C3CCCCC3)c3ccccc32)c1` is inactive: -14.4%; for `COC(=O)c1cc(Cl)ccc1OC` it is inactive: -20.5%; for `CCOC(=O)c1cc(S(=O)(=O)Nc2cc(OC)ccc2OC)[nH]n1` it is inactive: 3.09%.
With `Cc1ccc(C(=O)NCC(c2ccc3c(c2)OCO3)N2CCOCC2)cc1C` (stereo not drawn), the “activation” value was inactive: -8.39%.
On to `COc1ccc(Cl)cc1NC(=O)c1cc2c(=O)n3ccccc3nc2s1`, for which the “activation” value is inactive: -8.81%.
The figure for `O=C(CSc1cn(CC(=O)N2CCCC2)c2ccccc12)Nc1ccc(Cl)cc1` is inactive: -11.1%; for `COc1ccc(CNc2nc(-c3ccco3)nn2S(=O)(=O)c2ccc(Cl)cc2)cc1OC` it is inactive: -6.39%; for `Cc1cc2c(cc1S(N)(=O)=O)S(=O)(=O)CCC2` it is inactive: -8.77%.
On to `Cc1cc(C)n(-c2nnc(Nc3ccc(C)c(C)c3)c3ccccc23)n1`, for which the “activation” value was inactive: -22.8%.
`C[C@H]1O[C@H](O[C@H]2[C@H](O)[C@@H](O)[C@@H](O[C@H]3[C@H](O)[C@@H](O)[C@H](O)O[C@@H]3CO)O[C@@H]2CO)[C@H](O)[C@@H](O)[C@@H]1N[C@H]1C=C(CO)[C@@H](O)[C@H](O)[C@H]1O`: the “activation” value is inactive: -11%.
Take `CN(c1ccccc1)S(=O)(=O)c1ccc(NC(=O)c2nc(S(C)(=O)=O)ncc2Cl)cc1`: the “activation” value is inactive: -16%.
The figure for `COc1ccc(-c2c(C#N)c(SCC(=O)Nc3ccccc3C)nc(C)c2C(=O)Nc2ccc(Cl)cc2)cc1` is inactive: -13.1%.
The figure for `COC(=O)c1c(NC(=O)CCCOc2cccc(C)c2)sc2c1CCC2` is inactive: -12.4%; for `Cc1cc(O)c(C(c2cccc(F)c2)N2CCN(c3ccccc3)CC2)c(=O)n1Cc1ccco1` (stereo not drawn) it is inactive: -21.5%.
As for `COc1ccc(NC(=O)c2sc3nc4c(cc3c2N)CN(Cc2ccccc2)CC4)c(OC)c1`, the figure is inactive: -21.8%; as for `Cc1ccc(C)c(CN2C(=O)c3ccccc3S(=O)(=O)c3ccc(C(=O)OCC4CCCO4)cc32)c1` (stereo not drawn), inactive: -6.58%; as for `COc1ccc(NC(=O)Cn2c(SCc3ccc(C)cc3)nc3cccnc32)cc1OC`, inactive: -14.3%.
As to `O=C1Nc2ccccc2Oc2cc(Oc3ccccc3)ccc21`, the “activation” value is inactive: -9.35%.
Regarding `COc1cc(NC(=O)c2cc3nc(-c4ccccc4)cc(-c4ccccc4)n3n2)c(OC)cc1Cl`, the “activation” value was inactive: -16.3%.
The figure for `CC1CCN(c2nc3ccc(C(=O)NCc4ccc(Cl)cc4)cc3s2)CC1` is inactive: -8.43%.
The figure for `COC(=O)c1ccc(OC)c(Cn2c(=O)n(-c3ccc(C)cc3)c(=O)c3c2cnn3C)c1` is inactive: -15.9%.
The figure for `COc1ccc(C(=O)Nc2ccc3nc(SCC(=O)N4CCOCC4)sc3c2)cc1` is inactive: -3.73%; for `COc1ccc(C2CC(=O)N(CC(=O)Nc3ccc(C(F)(F)F)cc3)c3ccccc3S2)cc1` (stereo not drawn) it is inactive: -15.9%.
Take `CCc1ccc(OCC(=O)NCC(c2ccc(OC)cc2)N2CCOCC2)cc1` (stereo not drawn): the “activation” value was inactive: -1.4%.
Regarding `CCSc1nc(=O)c2c(n1C)NC(=O)CC2c1ccc(O)cc1OC` (stereo not drawn), the “activation” value is inactive: -11.2%.
As to `Cc1cccc(C)c1NC(=O)CN(C)S(=O)(=O)c1ccc2c(c1)n(C)c(=O)c(=O)n2C`, the “activation” value is inactive: -8.47%.
In the case of `Cc1ccc2c(CNC3CCC(C)CC3)c(C(=O)O)n(Cc3cccc(F)c3)c2c1` (stereo not drawn), the “activation” value was inactive: 7.48%.
As for `CCN(CC)CCNC(=O)c1ccc2c(c1)N(Cc1ccccc1)C(=O)c1ccccc1S2=O` (stereo not drawn), the “activation” value is inactive: 5.68%.
As for `CC(=O)c1cccc(NC(=O)Cn2c(C)c3cnn(-c4ccccc4)c(=O)c3c2C)c1`, the figure is inactive: -6.05%.
As for `COc1ccc(-n2c(=O)c3sc4ccccc4c3n(Cc3ccccc3)c2=O)cc1`, the figure is inactive: -11.7%; as for `COc1cccc(CNC(=O)c2c3c(nc4ccccc24)C(=O)N(C2CCCCC2)C3)c1`, inactive: -13.5%.
With `Cn1cc(C(=O)NCc2ccccc2)c(=O)c2cc(S(=O)(=O)N3CCCCCC3)ccc21`, the “activation” value is inactive: -3.62%.
As for `O=C(Cn1c(=O)nc(-c2ccccc2)c2cc(Cl)ccc21)NCCCc1ccccc1`, the figure is inactive: -13.6%; as for `CCc1nn(CC(=O)NC2CC2)c(=O)c2cc3ccccc3n12`, inactive: -17.7%; as for `Cc1ccccc1Oc1nc2c(c(=O)n(C)c(=O)n2C)n1Cc1ccc(Br)cc1`, inactive: -13.1%.
Consider `Cc1ccc(C)c(CSc2nc3ccncc3n2Cc2nc(-c3ccccc3Cl)oc2C)c1`, for which the “activation” value is inactive: -4.74%.
The figure for `COC(=O)c1ccc(C(=O)OC)c(NC(=O)c2c(-c3ccccc3)c(-c3ccccc3)nn(C)c2=O)c1` is inactive: 5.66%.
Consider `Cc1ccc2c(c1)nc(SCC(O)c1ccc(Br)cc1)n2C` (stereo not drawn), for which the “activation” value was inactive: -8.02%.
As to `Cn1c(=O)c2sccc2n2c(CCC(=O)NCc3ccccc3)nnc12`, the “activation” value was inactive: -8.34%.
With `COc1ccc(N2CCN(Cc3nc4c(c(=O)[nH]c(=O)n4C)n3Cc3ccccc3)CC2)cc1`, the “activation” value is inactive: 5.15%.
As for `CCC1CCCCN1C(=O)Cn1c(=O)n(CC2CCC(C(=O)NC)CC2)c(=O)c2sccc21` (stereo not drawn), the figure is inactive: -10.7%; as for `CCCCc1ccc(Nc2ncnc3c2cnn3-c2ccc(C)cc2)cc1`, inactive: 3.09%.
On to `Cc1ccc(S(=O)Cc2nc(-c3ccc(C(=O)NC(C)c4ccccc4)cc3)oc2C)cc1` (stereo not drawn), for which the “activation” value is inactive: -12.1%.
The figure for `COc1cc(OC)c(NC(=O)c2cc(S(=O)(=O)N3CCCC3)cn2C)cc1Cl` is inactive: -2.09%; for `CC(NC(=O)CSc1n[nH]c(-c2ccccc2)n1)c1nc2ccccc2n1C` (stereo not drawn) it is inactive: -9.07%.
As for `O=C(Nc1ccc(OC(F)(F)F)cc1)NC1COc2ccccc2C1` (stereo not drawn), the figure is inactive: -5.21%; as for `O=C(CCCn1c(=O)c2ccccc2n(CC(=O)Nc2ccc(F)cc2F)c1=O)NCc1ccccc1Cl`, inactive: -2.52%; as for `O=C(NCc1ccc(F)cc1)c1cc2c(s1)-c1ccccc1SC2`, inactive: -27%.
The figure for `CCCCOC(=O)c1ccc(NC(=O)/C(C#N)=C/c2ccc(-c3ccccc3)o2)cc1` is inactive: -13.2%; for `COc1cc2c(=O)n(CCC(=O)NCC3CCCO3)c(=O)n(CC(=O)Nc3c(C)cccc3C)c2cc1OC` (stereo not drawn) it is inactive: -26.3%; for `COc1cccc(CCNc2ncnc3c2nnn3C)c1` it is inactive: -20.9%.
Consider `CN(C)c1ccc(CNC(=O)C(Cc2ccccc2)NS(=O)(=O)c2ccc3c(c2)oc(=O)n3C)cc1` (stereo not drawn), for which the “activation” value is inactive: -12.4%.
Regarding `Cc1ccc(N(CC(=O)Nc2ccc(Br)c(C)c2)S(=O)(=O)c2cccs2)cc1`, the “activation” value is inactive: -11.8%.
As for `CCOc1ccc(CCNC(=O)C2Cc3ccccc3N2C(=O)CC)cc1OCC` (stereo not drawn), the figure is inactive: -17.4%; as for `Cc1ccc(-c2cc(C(=O)N3CCN(S(=O)(=O)c4ccc(Br)s4)CC3)[nH]n2)c(C)c1`, inactive: -17.3%.
Turning to `CC(=O)c1ccc(NC(=O)CSc2ccc3nc(-c4ccccc4)cn3n2)cc1`, the “activation” value was inactive: -14.6%.
As for `Cc1ccc(C)c(NC(=O)Cn2c(=O)n(Cc3cccs3)c(=O)c3cccnc32)c1`, the figure is inactive: -22.8%.
In the case of `COc1ccc(-c2cn3nc(N4CCC(C(=O)Nc5cc(Cl)ccc5OC)CC4)sc3n2)cc1`, the “activation” value is inactive: -8.14%.
As to `CC(C)(C)OC(=O)N1CCC(c2c(C(=O)N3CCN(c4ncccn4)CC3)cnn2-c2ccc(F)cc2F)CC1`, the “activation” value is inactive: 8.77%.
For the compound `CCc1nnc(SCc2nc(-c3ccccc3)oc2C)c2cc3sccc3n12`, the “activation” value is inactive: -43.4%.
For `CCc1ccc(CNC(=O)Cc2c(C(=O)O)c(C)cn2C)cc1`, the “activation” value was inactive: -5.59%.
The figure for `COc1ccc(C(=O)Nc2ccc(C(=O)OCc3cc(=O)n4nc(C(C)C)sc4n3)cc2)cc1` is inactive: -10.3%.
As for `Cc1ccc(Cl)cc1NC(=O)/C(C#N)=C\c1cn(Cc2ccc(F)cc2)c2ccccc12`, the figure is inactive: -21.6%; as for `C[N+](C)(C)CCCCCC[N+](C)(C)C`, inactive: -9.48%.
`Fc1ccc(CNc2cc(-c3ccccc3)nc3nncn23)cc1`: the “activation” value is inactive: 5.23%.
For the compound `Cc1ccccc1C(=O)Nc1ccc2nc(SCCOc3ccccc3)sc2c1`, the “activation” value is inactive: -2.56%.
Regarding `CCOC(=O)c1c(S(=O)(=O)NCC(=O)NCc2ccc(C)cc2)c(C)n(C)c1C`, the “activation” value was inactive: -6.13%.
Regarding `COc1ccc(OC)c(NC(=O)C(CCSC)NS(=O)(=O)c2cccs2)c1` (stereo not drawn), the “activation” value was inactive: -9.83%.
`Nc1c(C(=O)Nc2ccc(Cl)cc2F)sc2nc(-c3cccs3)ccc12`: the “activation” value was inactive: -8.41%.
On to `COc1ccc(-c2nc(SCC(=O)N3CCC(C)CC3)n[nH]2)cc1`, for which the “activation” value was inactive: -4.63%.
The figure for `COc1ccc(NC(=O)C(CC(C)C)NS(=O)(=O)c2ccc3c(c2)oc(=O)n3C)cc1Cl` (stereo not drawn) is inactive: -12.9%.

The values are drawn from PubChem BioAssay AID1159614 (National Center for Advancing Translational Sciences (NCATS), 2016).
